{"source": "PubChem BioAssay (NCATS)", "note": "Inconclusive results, whose numbers are uncertain, are shown with a selection of clear calls. Potencies of inconclusive entries are doubtful fits and often do not repeat. Active and inactive are the calls of the source. Calls come from the whole dose curve; as a rule, active = well fitted inhibition curve with a large enough effect; inconclusive = small, poorly fitted or top-dose-only effect; inactive = flat fitted curve, though single readings scatter. % is set by controls: 0 for no effect and ±100 for the full control effect; potency is the fitted concentration of half-maximal effect; tags give direction and shape of the fitted curve.", "data": [{"test_system": "NIH3T3", "experiment": "Cytotoxic Profiling of Annotated Libraries Using Quantitative High-Throughput Screening (AID 1296008); note: nearly all actives have a fitted effect of over 60% in size", "conditions": "Five cell lines viability, CellTiter-Glo ATP luminescence, 48-72 h; max response: active compounds read low", "method_in_brief": "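Cytotoxicity was measured as CellTiter-Glo ATP luminescence, read after 10 min at room temperature. Compound treatment of the cells lasted 48 or 72 hr at 37 degrees Celsius in a qHTS format.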", "values": [{"smiles": "COc1cccc(-c2cc(F)ccc2C2Cc3nc(N)nc(C)c3C(=O)N2)n1", "note": "(centres undefined)", "Potency": "active: 0.058 µM"}, {"smiles": "CN1CCN(c2ccc(OC(F)(F)F)c(Nc3ncc4c(n3)-c3c(c(C(N)=O)nn3CCO)CC4)c2)CC1", "Potency": "inconclusive: 2.06 µM [inhibitor, full curve]"}, {"smiles": "CCNC(=O)c1noc(-c2cc(Cl)c(O)cc2O)c1-c1ccc(OC)cc1", "Potency": "active: 0.92 µM"}, {"smiles": "O=C(Nc1ccc(Cl)cc1F)c1ccccc1O", "Potency": "inconclusive: 23.1 µM [inhibitor, single point]"}, {"smiles": "C[C@@H](N[C@H]1CCCC[C@@H]1NC(=O)c1ccc(Cl)cc1)c1cccc2ccccc12", "Potency": "inconclusive: 8.2 µM [inhibitor, partial curve]"}, {"smiles": "CN1CCN(Cc2ccc(NC(=O)Cc3ccc(Oc4cc(NC(=O)C5CC5)ncn4)cc3)cc2C(F)(F)F)CC1", "Potency": "inconclusive: 16.4 µM [inhibitor, single point]"}, {"smiles": "CCN(CC)CCN(Cc1ccc(-c2ccc(C(F)(F)F)cc2)cc1)C(=O)Cn1c(SCc2ccc(F)cc2)nc(=O)c2c1CCC2", "Potency": "active: 4.61 µM"}, {"smiles": "N#Cc1cc(-c2ccnc(Nc3ccc(N4CCOCC4)cc3)n2)ccc1OC1CCOCC1", "Potency": "active: 11.6 µM"}, {"smiles": "C[C@H](NC(=O)C(C)(C)Oc1ccc(C(F)(F)F)cn1)[C@@H](Cc1ccc(Cl)cc1)c1cccc(C#N)c1", "Potency": "inconclusive: 20.6 µM [inhibitor, single point]"}, {"smiles": "COc1cc([C@H]2O[C@H](c3cc(OC)c4c(c3)OCO4)[C@H](C)[C@H]2C)cc(OC)c1OC", "Potency": "inconclusive: 8.93 µM [inhibitor, partial curve, poor fit]"}, {"smiles": "C#Cc1cccc(Nc2nc3cc(C(=O)O)ccc3c3cncnc23)c1", "max response": "inactive: -50.8%"}, {"smiles": "CC(C)CCNC(=O)c1ccc2c(c1)nc(Nc1n[nH]c3ccc(-c4ccccc4OC(F)(F)F)cc13)n2C1CCC(O)CC1", "note": "(centres undefined)", "Potency": "inconclusive: 18.4 µM [inhibitor, single point]"}, {"smiles": "CC(=O)Nc1ccc(NC(=S)NC(=O)c2ccc(C(C)(C)C)cc2)cc1", "Potency": "active: 16.4 µM"}, {"smiles": "COCCOCCOc1ccc(C2=N[C@@](C)(C(=O)O)CS2)c(O)c1", "Potency": "inconclusive: 29.1 µM [inhibitor, single point]"}, {"smiles": "C=C(C(=O)O)C1CC2=C(C)C(=O)CC2C(C)CC1O", "note": "(centres undefined)", "Potency": "inconclusive: 23.1 µM [inhibitor, single point]"}, {"smiles": "COc1cc(C[C@H]2C(=O)OC[C@@H]2Cc2ccc(OC)c(OC)c2)ccc1O", "max response": "inactive: -24.5%"}, {"smiles": "N#CC(CCCN1CCC(O)(c2ccc(Cl)cc2)CC1)(c1ccccc1)c1ccccc1", "Potency": "inconclusive: 32.6 µM [inhibitor, partial curve, poor fit]"}, {"smiles": "C=C1C(=O)OC2C(OC(=O)C=C(C)C)C(C)=C3C(=O)C=C(C)C3C(O)C12", "note": "(centres undefined)", "Potency": "inconclusive: 20.2 µM [inhibitor, single point]"}, {"smiles": "O=C(Nc1ccc(-c2ccnc(Nc3ccc(N4CCOCC4)cc3)n2)cc1)C1CCCN1", "note": "(centres undefined)", "Potency": "inconclusive: 23.1 µM [inhibitor, partial curve, poor fit]"}, {"smiles": "CC1(C)C2CC(OC3OC(COC4OCC(O)(CO)C4O)C(O)C(O)C3O)C1(C)CC2O", "note": "(centres undefined)", "Potency": "inconclusive: 3.17 µM [inhibitor, single point]"}, {"smiles": "CCN1CCN(Cc2ccc(NC(=O)c3ccc(C)c(Oc4ccnc5[nH]ccc45)c3)cc2C(F)(F)F)CC1", "Potency": "inconclusive: 18 µM [inhibitor, single point]"}, {"smiles": "C=CC(=O)N1CCC(Oc2cc3c(Nc4ccc(Cl)c(Cl)c4F)ncnc3cc2OC)CC1", "Potency": "active: 14.6 µM"}, {"smiles": "NC(=O)c1ccccc1Nc1ccnc(Nc2cccc(O)c2)n1", "Potency": "active: 7.31 µM"}, {"smiles": "O=C(Nc1nc2cc(C(F)(F)F)cc(NC3CC3)n2n1)c1cccnc1", "Potency": "inconclusive: 18.4 µM [inhibitor, single point]"}, {"smiles": "CC(C)(O)C1CC(=O)C2(C)C(CCC3(C)C(c4ccoc4)OC(=O)C4OC432)C12CCC(=O)OC2", "note": "(centres undefined)", "outcome": "inactive"}, {"smiles": "CC(=O)OC[C@H]1O[C@@H](n2ncc(=O)[nH]c2=O)[C@H](OC(C)=O)[C@@H]1OC(C)=O", "Potency": "inconclusive: 33.5 µM [inhibitor, single point]"}, {"smiles": "CC(=O)C1=C(O)C2c3c[nH]c4cccc(c34)CC2C(C)(C)N(C)C1=O", "note": "(centres undefined)", "Potency": "inconclusive: 23.1 µM [inhibitor, single point]"}, {"smiles": "CCCCCCCCC(=O)N[C@H](CN1CCCC1)[C@H](O)c1ccc2c(c1)OCCO2", "Potency": "inconclusive: 29.1 µM [inhibitor, single point]"}, {"smiles": "CCOC(=O)c1cccc(CNc2ccc(N(C)C(=O)Nc3ccccc3)cc2)c1", "Potency": "inconclusive: 23.1 µM [inhibitor, single point]"}, {"smiles": "Cc1noc(C)c1-c1cc(O)cc(C(O)c2ccccc2)c1", "note": "(centres undefined)", "Potency": "active: 10.3 µM"}, {"smiles": "C=CC(=O)N1CCN(C(=O)CNc2cc(-c3ccccc3Cl)c(Cl)cc2OC)CC1", "Potency": "inconclusive: 29.1 µM [inhibitor, single point]"}, {"smiles": "CC(C)(C)Nc1nc(Nc2ccc(C(N)=O)cc2)cc(N)c1C#N", "Potency": "inconclusive: 1.46 µM [inhibitor, full curve]"}, {"smiles": "O=C(NCc1ccc(Oc2ccccc2)cc1)c1nc(-c2cc(Br)c(O)c(Br)c2)no1", "Potency": "inconclusive: 23.1 µM [inhibitor, single point]"}, {"smiles": "CC(=O)N1CCN(CCOc2ccc(C3CCN(C4=Nn5c(nnc5C(F)(F)F)CC4)CC3)cc2)CC1", "Potency": "inconclusive: 3.66 µM [inhibitor, full curve]"}, {"smiles": "C=CC(=O)N1CCN(C(=O)CNc2cc(I)c(Cl)cc2O)CC1", "Potency": "inconclusive: 13 µM [inhibitor, partial curve, poor fit]"}, {"smiles": "C#CCN(Cc1cc2c(=O)[nH]c(C)nc2cc1Br)c1ccc(C(=O)NCc2cccnc2)cc1", "Potency": "active: 0.0092 µM"}, {"smiles": "COc1ccc2nc(-c3cc(OC)c(OC)c(OC)c3)cc(C(=O)NCC(=O)Nc3ccc(C(C)=O)cc3)c2c1", "Potency": "inconclusive: 23.1 µM [inhibitor, single point]"}, {"smiles": "COc1cc(-c2cc(-c3cccc(O)c3)cnc2N)cc(OC)c1OC", "Potency": "inconclusive: 16.4 µM [inhibitor, single point]"}, {"smiles": "Cc1cc(N(C)C)ccc1-c1nc2ccc(-c3nc4ccc(N5CCN(C)CC5)cc4[nH]3)cc2[nH]1", "Potency": "inconclusive: 23.1 µM [inhibitor, single point]"}]}]}
